Measurements: article PMC12322260, “Anticancer activity of triterpene glycosides from the sea star Solaster pacificus” (Scientific Reports, 2025)

Legend:
[1] = tested on: 22Rv1 cells; assay: MTT cytotoxicity assay; type: cell-based; settings: Homo sapiens; 22Rv1, 48 h, mean ± SD
From the text: (§1) The cell lines were purchased from ATCC (Manassas, VA, USA) or ECACC (Salisbury, UK). The following cell lines were used: Human prostate cancer cells LNCaP (ATCC; RRID:CVCL_0395), VCaP (ECACC; RRID:CVCL_2235), 22Rv1 (ATCC; RRID:CVCL_1045), PC3 (ATCC; RRID:CVCL_0035), and DU145 (ATCC; RRID:CVCL_0105); human prostate non-cancer cells PNT2 (ATCC; RRID:CVCL_2164) and RWPE-01 (ATCC; RRID:CVCL_3791). Human non-cancer embryonic kidney cells HEK293T (ECACC; RRID:CVCL_0063) and human fibroblast cells MRC-9 (ECACC; RRID:CVCL_2629). The docetaxel-resistant cells PC3-DR were generated by long-term treatment of human prostate cancer PC3 cells with sublethal concentrations of docetaxel as previously described[32] and were provided by Prof. Z. Culig (Innsbruck Medical University, Austria). All cell lines were recently authenticated by a commercial service (Multiplexion GmbH, Heidelberg, Germany) and were cultured as previously described[58],[59]. Cells were kept in culture for a maximum of three months and were routinely examined for bacterial, fungal, and mycoplasma infections.

[2] = tested on: DU145 cells; assay: MTT cytotoxicity assay; type: cell-based; settings: Homo sapiens, DU-145; DU145, 48 h, mean ± SD
From the text: as §1

[3] = tested on: HEK293T cells; assay: MTT cytotoxicity assay; type: cell-based; settings: Homo sapiens, HEK-293T, 48 h, mean ± SD
From the text: as §1

[4] = tested on: LNCaP cells; assay: MTT cytotoxicity assay; type: cell-based; settings: Homo sapiens, 48 h, mean ± SD
From the text: as §1

[5] = tested on: MRC-9 cells; assay: MTT cytotoxicity assay; type: cell-based; settings: Homo sapiens, MRC9; MRC-9, 48 h, mean ± SD
From the text: as §1

[6] = tested on: PC3 cells; assay: MTT cytotoxicity assay; type: cell-based; settings: Homo sapiens, PC-3; PC3, 48 h, mean ± SD
From the text: as §1

[7] = tested on: PNT2 cells; assay: MTT cytotoxicity assay; type: cell-based; settings: Homo sapiens; PNT2, 48 h, mean ± SD
From the text: as §1

[8] = tested on: RWPE-1 cells; assay: MTT cytotoxicity assay; type: cell-based; settings: Homo sapiens; RWPE-1, 48 h, mean ± SD
From the text: as §1

[9] = tested on: VCaP cells; assay: MTT cytotoxicity assay; type: cell-based; settings: Homo sapiens, 48 h, mean ± SD
From the text: as §1

[10] = tested on: PC3-DR cells; assay: MTT cytotoxicity assay; type: cell-based, human; settings: for IC50: Homo sapiens, PC3-DR, 48 h, mean ± SD
From the text: as §1

[11] = tested on: HT-29, RPMI-7951, and MDA-MB-231 cells; set-up: method as in PMID 33799442; settings: nontoxic concentrations; cited from earlier work
[12] = molecular target: P-glycoprotein (P-gp) in PC3-DR cells (Homo sapiens, UniProt P08183); assay: P-gp activity, calcein-AM assay; settings: 30 min, glycosides at non-cytotoxic concentrations, controls TQD 50 nM, Doce 100 nM
UniProt P08183, sequence (P08183 whole entry): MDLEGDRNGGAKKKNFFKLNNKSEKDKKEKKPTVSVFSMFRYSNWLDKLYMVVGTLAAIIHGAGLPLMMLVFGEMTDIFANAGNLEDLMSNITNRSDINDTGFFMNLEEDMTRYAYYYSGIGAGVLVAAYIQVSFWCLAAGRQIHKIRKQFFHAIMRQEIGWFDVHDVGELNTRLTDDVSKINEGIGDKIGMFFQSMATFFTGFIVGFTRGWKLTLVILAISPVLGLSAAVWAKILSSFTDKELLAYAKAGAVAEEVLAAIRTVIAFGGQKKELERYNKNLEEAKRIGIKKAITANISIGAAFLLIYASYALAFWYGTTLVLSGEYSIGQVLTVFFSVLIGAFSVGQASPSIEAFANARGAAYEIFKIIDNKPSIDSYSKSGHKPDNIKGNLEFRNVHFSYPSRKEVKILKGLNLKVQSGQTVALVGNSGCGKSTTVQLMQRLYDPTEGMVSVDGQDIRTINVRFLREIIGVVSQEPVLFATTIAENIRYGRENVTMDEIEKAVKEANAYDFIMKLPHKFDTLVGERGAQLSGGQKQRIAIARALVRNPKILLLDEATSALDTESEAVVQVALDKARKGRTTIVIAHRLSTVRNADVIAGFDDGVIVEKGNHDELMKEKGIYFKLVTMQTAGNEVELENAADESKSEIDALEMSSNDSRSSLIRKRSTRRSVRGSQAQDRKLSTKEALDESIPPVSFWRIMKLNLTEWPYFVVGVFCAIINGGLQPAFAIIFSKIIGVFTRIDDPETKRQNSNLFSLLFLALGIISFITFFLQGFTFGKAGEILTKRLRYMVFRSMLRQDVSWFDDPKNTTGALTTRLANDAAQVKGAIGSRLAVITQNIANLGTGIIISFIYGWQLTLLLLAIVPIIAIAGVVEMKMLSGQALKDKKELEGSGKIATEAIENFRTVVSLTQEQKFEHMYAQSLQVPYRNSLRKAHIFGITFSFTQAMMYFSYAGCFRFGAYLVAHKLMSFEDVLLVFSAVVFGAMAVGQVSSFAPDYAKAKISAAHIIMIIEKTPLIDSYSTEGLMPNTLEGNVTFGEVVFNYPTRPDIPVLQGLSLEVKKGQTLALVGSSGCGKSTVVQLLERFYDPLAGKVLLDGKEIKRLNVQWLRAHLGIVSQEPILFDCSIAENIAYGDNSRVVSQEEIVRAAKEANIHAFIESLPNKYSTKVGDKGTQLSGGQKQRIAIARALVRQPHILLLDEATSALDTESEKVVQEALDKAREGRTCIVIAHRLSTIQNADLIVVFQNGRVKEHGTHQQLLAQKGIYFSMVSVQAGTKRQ
From the text: A major contributor to docetaxel resistance is P-glycoprotein (also known as P-gp, MDR1), known to be overexpressed in PC3-DR cells. P-glycoprotein is a molecular efflux pump that actively expels various xenobiotic agents, including docetaxel, from cancer cells. Increased P-gp expression correlates with an increased IC50 for docetaxel, signifying enhanced drug resistance. […] In this assay, the non-fluorescent calcein-AM passively diffuses into cells, where it is hydrolyzed by cellular esterases into fluorescent calcein. Both calcein and its precursor are P-gp substrates and are actively transported out of P-gp-highly expressing cells (e.g. PC3-DR cells), which results in reduced intracellular fluorescence. P-gp inhibitors, such as tariquidar, block P-gp function, leading to calcein accumulation and an increase in fluorescence, which therefore can be used as a reliable indicator of reduced P-gp activity. A similar fluorescence increase is observed in the presence of docetaxel due to its competitive binding to the P-gp transporter alongside calcein[38].
Number of biological replicates n = 3. […] Number of biological replicates n = 3.
The evaluation of the activity of P-glycoprotein (P-gp) was performed using calcein-AM assay as described previously. […] The plates were incubated for 15 min, and the green calcein fluorescence was recorded using an Infinite F200PRO plate reader (TECAN). […]

[13] = tested on: 22Rv1 cells; assay: Drug combination MTT assay, SynergyFinder ZIP analysis; type: cell-based, human; settings: 22Rv1, 48 h
Method: (§2) Fig. 5 Effects of CuC1 in combination with taxanes and platinum agents. PC3-DR and 22Rv1 cells were co-treated with cisplatin (Cis), carboplatin (Carbo), docetaxel (Doce), or cabazitaxel (Caba) in combination with CuC1 at the indicated concentrations for 48 h. Cellular viability was evaluated using the MTT assay (number of biological replicates n = 3.) and is represented in the Supplementary Table S2. The cytotoxic effects were further analyzed, and 3D heat maps were constructed using SynergyFinder 3.0 software. The drug effects in combination (synergistic, additive, or antagonistic) were analyzed and visualized using the ZIP algorithm and are indicated by δ-score. δ > 10: Synergistic interactions (dark red area); […]: additive effect; δ < − 10: Antagonistic interactions (dark green area). A ZIP synergy score represents a mean δ overall the concentration range used.
(§3) The effect of combinational treatment with established chemotherapies was evaluated as previously reported^54. In brief, cells were exposed to individual drugs of their combinations for 48 h, and the viability was measured by MTT assay and was then analyzed using SynergyFinder 3.0 software (https://synergyfinder.fimm.fi) and the ZIP score algorithm. Statistical analysis was conducted automatically by the software using its inbuilt algorythms based on the input data type and size.

[14] = tested on: PC3-DR cells; assay: as above; type: cell-based, human; settings: 48 h
Method: as §2, §3

[15] = tested on: PC3-DR cells; settings: TQD 50 nM

Row | SMILES | IC50 [1] | IC50 [2] | IC50 [3] | IC50 [4] | IC50 [5] | IC50 [6] | IC50 [7] | IC50 [8] | IC50 [9] | IC50 [10] | colony formation [11] | also measured
1 | CO[C@@H]1[C@@H](O)[C@H](O[C@@H]2[C@@H](O)[C@H](O[C@H]3[C@H](O)[C@@H](O[C@@H]4OC[C@@H](O)[C@H](O)[C@H]4O)[C@H](O[C@H]4[C@H](O[C@H]5CC[C@]6(C)[C@@H]7CCC89C(=O)O[C@@](C)(CCC=C(C)C)[C@H]8[C@@H](OC(C)=O)C[C@@]9(C)C7=CC[C@H]6C5(C)C)OC[C@@H](O)[C@@H]4O)O[C@@H]3C)O[C@H](CO)[C@H]2O)OC[C@H]1O (stereo partly shown) [PaC, pacificusoside C] | 1160 ± 70 nM | 15500 ± 2130 nM | 2850 ± 130 nM | 8240 ± 1070 nM | 2110 ± 270 nM | 5.68 ± 0.32 µM | 3030 ± 240 nM | 4500 ± 230 nM | 1860 ± 120 nM | 13.6 ± 4.22 µM | strongly suppressed the colony formation | –
2 | CO[C@@H]1[C@@H](O)[C@H](O[C@@H]2[C@@H](O)[C@H](O[C@H]3[C@H](O)[C@@H](O[C@@H]4OC[C@@H](O)[C@H](O)[C@H]4O)[C@H](O[C@H]4[C@H](O[C@H]5CC[C@]6(C)[C@@H]7CCC89C(=O)O[C@@](C)(/C=C/C=C(C)C)[C@H]8[C@@H](OC(C)=O)C[C@@]9(C)C7=CC[C@H]6C5(C)C)OC[C@@H](O)[C@@H]4O)O[C@@H]3C)O[C@H](CO)[C@H]2O)OC[C@H]1O (stereo partly shown) [CuC2, cucumarioside C2] | 623 ± 35 nM | 2690 ± 190 nM | 1590 ± 100 nM | 2180 ± 190 nM | 799 ± 62 nM | 2.21 ± 0.14 µM | 1270 ± 54 nM | 897 ± 66 nM | 487 ± 42 nM | 6.2 ± 1.47 µM | strongly suppressed the colony formation | –
3 | CC(=O)O[C@@]12CO[C@@H]1C[C@H](O)[C@@]1(C)C(=O)[C@H](O)C3=C(C)[C@@H](OC(=O)[C@H](O)[C@@H](NC(=O)OC(C)(C)C)c4ccccc4)C[C@@](O)([C@@H](OC(=O)c4ccccc4)[C@H]21)C3(C)C [Doce, docetaxel] | 0.604 ± 0.122 nM | 2.2 ± 0.61 nM | – | 5.06 ± 0.58 nM | > 500 nM | – | > 500 nM | 0.423 ± 0.225 nM | 0.225 ± 0.215 nM | 0.388 ± 0.0495 µM | – | reduced sensitivity (resistance) of PC3-DR compared to parental PC3 cells ([10]; IC50 PC3-DR vs PC3, 48 h): 35 fold; P-gp activity (calcein-AM efflux) [12]: affected P-gp activity; Response (% of effect) ([13]; Doce 0.5 nM alone): 14.55% and 11.17%; Response (% of effect) ([13]; Doce 1 nM alone): 20.93% and 17.4913%; Response (% of effect) ([13]; Doce 2 nM alone): 33.11% and 25.97%; Response (% of effect) ([14]; Doce 100 nM alone): 18.69% and 23.63%; Response (% of effect) ([14]; Doce 200 nM alone): 29.98% and 33.41%; Response (% of effect) ([14]; Doce 400 nM alone): 46.2% and 54.53%; Response (% of effect) ([14]; Doce 800 nM alone): 69.53% and 74.92%; decrease of IC50 on co-treatment with tariquidar [15]: 30 fold

Values joined by “and” are separate entries in the source; they are usually repeats but may differ in a detail not shown here. Identical values can stand only once.
